# Data: the supplement of paper PMC8728848
# Some of the results follow.
# B1: Banana lectin (Musa acuminata) (protein)
# chain: MNGAIKVGAWGGNGGSAFDMGPAYRIISVKIFSGDVVDGVDVTFTYYGKTETRHYGGSGGTPHEIVLQEGEYLVGMAGEVANYTGAVVLGKLGFSTNKKAYGPFGNTGGTPFSLPIAAGKISGFFGRGGKFLDAIGVYLEPLEHHHHHH
# Legend:
# Experiment in all cases: glycan array binding signal (z-score within array); higher = stronger binding
# Settings in all cases: glycan notation: IUPAC condensed, linker removed; mutation: H84T
# [1] = target: Fuc(a1-2)[GalNAc(b1-3)]Gal
# Procedure, shortened: (§1)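 Glycan array data came from 3228 arrays in the Consortium for Functional Glycomics database, and only arrays with an available protein sequence were kept. Glycan names were put into IUPAC-condensed notation, and columns mapping to the same glycan were averaged. The binding signal is a within-array Z-score, averaged across arrays of one protein sequence run at different concentrations or buffers and across linkers. A negative Z-score can be read as non-binding.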
# [2] = target: Fuc(a1-3)GlcNAc
# Procedure, shortened: as §1
# [3] = target: Fuc(a1-3)[Gal(b1-4)]Glc6S
# Procedure, shortened: as §1
# [4] = target: Fuc(a1-3)[Gal(b1-4)]GlcNAc
# Procedure, shortened: as §1
# [5] = target: Fuc(a1-3)[Gal(b1-4)]GlcNAc(b1-2)Man
# Procedure, shortened: as §1
# [6] = target: Fuc(a1-3)[Gal(b1-4)]GlcNAc(b1-2)Man(a1-3)[Fuc(a1-3)[Gal(b1-4)]GlcNAc(b1-2)Man(a1-6)]Man(b1-4)GlcNAc(b1-4)GlcNAc
# Procedure, shortened: as §1
# [7] = target: Fuc(a1-3)[Gal(b1-4)]GlcNAc(b1-2)Man(a1-3)[Fuc(a1-3)[Gal(b1-4)]GlcNAc(b1-2)Man(a1-6)]Man(b1-4)GlcNAc(b1-4)[Fuc(a1-6)]GlcNAc
# Procedure, shortened: as §1
# [8] = target: Fuc(a1-3)[Gal(b1-4)]GlcNAc(b1-3)Gal(b1-3)[Fuc(a1-4)]GlcNAc
# Procedure, shortened: as §1
# [9] = target: Fuc(a1-3)[Gal(b1-4)]GlcNAc(b1-3)Gal(b1-4)[Fuc(a1-3)]GlcNAc
# Procedure, shortened: as §1
# [10] = target: Fuc(a1-3)[Gal(b1-4)]GlcNAc(b1-3)Gal(b1-4)[Fuc(a1-3)]GlcNAc(b1-3)Gal(b1-4)[Fuc(a1-3)]GlcNAc
# Procedure, shortened: as §1
# [11] = target: Fuc(a1-3)[Gal(b1-4)]GlcNAc(b1-3)GalNAc
# Procedure, shortened: as §1
# [12] = target: Fuc(a1-3)[Gal(b1-4)]GlcNAc(b1-6)GalNAc
# Procedure, shortened: as §1
# [13] = target: Fuc(a1-3)[Gal(b1-4)]GlcNAc(b1-6)[Gal(b1-3)GlcNAc(b1-3)]Gal(b1-4)Glc
# Procedure, shortened: as §1
# [14] = target: Fuc(a1-3)[Gal(b1-4)]GlcNAc6S
# Procedure, shortened: as §1
# [15] = target: Fuc(a1-3)[Gal3S(b1-4)]Glc
# Procedure, shortened: as §1
# [16] = target: Fuc(a1-3)[Gal3S(b1-4)]GlcNAc
# Procedure, shortened: as §1
# [17] = target: Fuc(a1-3)[Gal3S(b1-4)]GlcNAc6S
# Procedure, shortened: as §1
# [18] = target: Fuc(a1-3)[GalNAc(b1-4)]GlcNAc
# Procedure, shortened: as §1
# [19] = target: Fuc(a1-3)[GalNAc(b1-4)]GlcNAc6S
# Procedure, shortened: as §1
# [20] = target: Fuc(a1-4)GlcNAc
# Procedure, shortened: as §1
# [21] = target: Fuc(b1-3)GlcNAc
# Procedure, shortened: as §1
# [22] = target: Gal(a1-2)Gal
# Procedure, shortened: as §1
# [23] = target: Gal(a1-3)Gal
# Procedure, shortened: as §1
# [24] = target: Gal(a1-3)Gal(b1-3)GlcNAc
# Procedure, shortened: as §1
# [25] = target: Gal(a1-3)Gal(b1-3)GlcNAc(b1-2)Man
# Procedure, shortened: as §1
# [26] = target: Gal(a1-3)Gal(b1-3)GlcNAc(b1-2)Man(a1-3)[Gal(a1-3)Gal(b1-3)GlcNAc(b1-2)Man(a1-6)]Man(b1-4)GlcNAc(b1-4)GlcNAc
# Procedure, shortened: as §1
# [27] = target: Gal(a1-3)Gal(b1-3)GlcNAc(b1-3)GalNAc
# Procedure, shortened: as §1
# [28] = target: Gal(a1-3)Gal(b1-3)GlcNAc(b1-6)GalNAc
# Procedure, shortened: as §1
# [29] = target: Gal(a1-3)Gal(b1-3)[Fuc(a1-4)]GlcNAc(b1-2)Man(a1-3)[Gal(a1-3)Gal(b1-3)[Fuc(a1-4)]GlcNAc(b1-2)Man(a1-6)]Man(b1-4)GlcNAc(b1-4)GlcNAc
# Procedure, shortened: as §1
# [30] = target: Gal(a1-3)Gal(b1-4)Glc
# Procedure, shortened: as §1
binder,measurement,setting,value
B1,glycan array binding signal (z-score),[1],-0.195
same,glycan array binding signal (z-score),[2],-0.218
same,glycan array binding signal (z-score),[3],-0.158
same,glycan array binding signal (z-score),[4],-0.18
same,glycan array binding signal (z-score),[5],-0.189
same,glycan array binding signal (z-score),[6],-0.201
same,glycan array binding signal (z-score),[7],-0.115
same,glycan array binding signal (z-score),[8],-0.177
same,glycan array binding signal (z-score),[9],-0.061
same,glycan array binding signal (z-score),[10],-0.194
same,glycan array binding signal (z-score),[11],-0.17
same,glycan array binding signal (z-score),[12],-0.169
same,glycan array binding signal (z-score),[13],-0.214
same,glycan array binding signal (z-score),[14],-0.187
same,glycan array binding signal (z-score),[15],-0.158
same,glycan array binding signal (z-score),[16],-0.134
same,glycan array binding signal (z-score),[17],-0.197
same,glycan array binding signal (z-score),[18],-0.19
same,glycan array binding signal (z-score),[19],-0.204
same,glycan array binding signal (z-score),[20],-0.157
same,glycan array binding signal (z-score),[21],-0.189
same,glycan array binding signal (z-score),[22],-0.167
same,glycan array binding signal (z-score),[23],-0.173
same,glycan array binding signal (z-score),[24],-0.178
same,glycan array binding signal (z-score),[25],-0.173
same,glycan array binding signal (z-score),[26],-0.165
same,glycan array binding signal (z-score),[27],-0.184
same,glycan array binding signal (z-score),[28],-0.136
same,glycan array binding signal (z-score),[29],0.562
same,glycan array binding signal (z-score),[30],-0.193
